The source of these data is publication PMC3868573.

In the experiment the target is myc-tagged wild-type human APOBEC3G (human), Q9HC16. Nature of the experiment: co-IP; 293T cells co-transfected with HA-tagged wild-type or mutant hA3G and hA3G-myc; lysed after 48 h in RIPA buffer (50 mM Tris-HCl pH 7.4, 150 mM NaCl, 1% NP-40, 0.5% sodium deoxycholate, 0.1% SDS); anti-myc affinity gel 1 h at 4°C; blot with anti-HA; wild-type immune complexes also with or without 25 U RNase A. The note with it: remark: other sources report otherwise.

These are yes or no findings as the source states them, for the method shown. Binding seen in cells or lysates may run through a third protein. Some binding calls cover weakened binding; strength is not graded here. Sequences can lack the tags named with a protein.

B1: HA-tagged wild-type human APOBEC3G, Q9HC16 1-384 (protein)
chain: MKPHFRNTVERMYRDTFSYNFYNRPILSRRNTVWLCYEVKTKGPSRPPLDAKIFRGQVYSELKYHPEMRFFHWFSKWRKLHRDQEYEVTWYISWSPCTKCTRDMATFLAEDPKVTLTIFVARLYYFWDPDYQEALRSLCQKRDGPRATMKIMNYDEFQHCWSKFVYSQRELFEPWNNLPKYYILLHIMLGEILRHSMDPPTFTFNFNNEPWVRGRHETYLCYEVERMHNDTWVLLNQRRGFLCNQAPHKHGFLEGRHAELCFLDVIPFWKLDLDQDYRVTCFTSWSPCFSCAQEMAKFISKNKHVSLCIFTARIYDDQGRCQEGLRTLAEAGAKISIMTYSEFKHCWDTFVDHQGCPFQPWDGLDEHSQDLSGRLRAILQNQEN
As to B1, the binding entry was “binds”.
